The values that follow come from the RNAGym collection of RNA variant scans (doi:10.7554/elife.90254).

B1: OR4K15 (parent)
chain: GUUAACGGUCAUAGGCCAUGGAAACUAGGAGCACCAUUUCGCUGCCAGUGAAGAAAUGAACAAAGAAAAUCUGGGCCAGGCAGGCAUCAAAAGAAAUAGUCUUGCGCUCAACCAGAAAGUCUGUAAUCAUUUUAAGGGUA

The source gives no read counts; variants with many changes may rest on few reads.

Variants of B1 are the subject of the data set. Put plainly: self-cleavage, relative activity (ratio to wild type); higher = more cleavage; in vitro, sequencing; the parent is a self-cleaving ribozyme.
As for U72C A92U A126G A129G, the self-cleavage amounted to 0.21.

On to U72A A86U A96G, for which the self-cleavage was 0.07. For U70C A117G U122C, the self-cleavage is 0.36. Regarding U72A A94G U97A, the self-cleavage turned out to be 0.32. The same measure for A89G U124C U133G: 1.52. As for A89G A95G U132C, the figure is 1.04; as for A90G U108C U130C A140G, 0. The same measure for A90U A91U A118G U131C: 0.99.

With U70C A95G U100C U122C A126G U131G, the self-cleavage was 1.16.

In the case of A86U A110G G136U, the self-cleavage came to 0.13. The same measure for U87C U100C A116G: 0.51; for U72C A82U A114U: 0. The same measure for A91G U103G U122A: 0.02. As for A91G C105A A118G, the figure is 0; as for A86G U100C U124C U133A, 2.54; as for A91G U131C A135G, 0.51. Consider A91G A96G U130C, for which the self-cleavage turned out to be 1.03. As for U70C G99U A118U, the figure is 0.03; as for U70C A86G A95G U122C, 0.88; as for A86G A94G A129G, 0.73. The same measure for A78G G83A U103C A116U: 0.03; for A82U A96U C105U A111G A135C: 0. As for A78U A90G A98G, the figure is 0.04; as for A90G A95G A110G, 0.32; as for A78G A94U U103C U132G, 0.05. As for U72C A129G G136U, the self-cleavage amounted to 0.06. As for A78G G83A U108A, the figure is 0.04.

Consider C85A A94C A134G, for which the self-cleavage was 1.61.

As for U87A U120A U132C, the self-cleavage was 0.64. As for G80U A91C A110G, the figure is 0.03; as for A78G A82U A111U U133A, 0.03.

U72C U87C C121A U133C: the self-cleavage amounted to 0.89. As for U87C U122G A134G, the figure is 2.87; as for G79A A116G U139A, 0.09. The same measure for A82C U87C A140G: 0.19. As for A78G G104A U132C, the figure is 0.04; as for A86G U120C A125G, 0.13. On to U70A A91G A117U A125G, for which the self-cleavage amounted to 0.14.

Take A78G A94G A126G: the self-cleavage came out at 0.11.

With C71U U72A A94G A110U, the self-cleavage came to 0.09.

Turning to A78G A92G G106A, the self-cleavage is 0.02. The same measure for A90U A95G A125G: 1.34; for A82G C109U U133A: 0.17; for A69U A91G A96G A117G: 2.02. For the variant G74A A86G A114G, the self-cleavage came out at 0.04. As for A82G A96G A118G U124C U139C, the figure is 0.48. The same measure for A78U A82G A126G: 0.14. In the case of U70G A78U U102C U131C, the self-cleavage worked out at 1.16.

For the variant U87C G115A U132C, the self-cleavage was found to be 0.04. As for A86G U103C A114C, the figure is 0.02; as for G84U A126U U127C, 0.05; as for G74U A118G U131C, 0.02. The same measure for U87C A126G U139A: 1.9. With A86G A92G A96G U100C, the self-cleavage came to 1.99. With A90U U120C U122C, the self-cleavage came out at 1.42. The same measure for G79A A114U U122C: 0; for A92G G106A U139A: 0; for A92C U97C A98G U131C: 0.28. As for A82G A90G A94G A117G, the figure is 0.09; as for A78G U100C A110G, 0.06. The same measure for G84U A117G A140G: 0.11; for C77U C109G A110U: 0.02; for U70C C71U U124C: 0.1.

In the case of A89G U103C A126G, the self-cleavage came to 0.53. The same measure for A91G A110G A114G: 0.02. The same measure for A78U A118G A125G A129G: 0. For A78G U100C C113U, the self-cleavage was 0.08.

For the variant A89U A111G U122G, the self-cleavage turned out to be 0.01. As for U87C A126U A140G, the figure is 0.82. Take A78U A96G U108A A117G: the self-cleavage worked out at 0.01. The same measure for A78G A96G U103A: 0.08; for A78G U120C A126G: 0.21; for U87A A90G U103C A140G: 1.18. As for U70C G119A U122C, the figure is 0.93.

On to A82U A118G U132C, for which the self-cleavage was found to be 0.02.

On to A86U U87C U122A U131C U132C, for which the self-cleavage amounted to 0.7.

Turning to U87C A96G U103C, the self-cleavage amounted to 2.17. Regarding A86G A90G A96G A126G, the self-cleavage stood at 0.61. As for C76G A78C U87C U127C, the figure is 0.06; as for U70C A111C A118G, 0. As for C85U A90G A91G U100A A110G A129G, the figure is 0; as for U70C A98G U108C A126G, 0.01. As for U72A A89G A94G, the figure is 0.24; as for A69U A78G U122C, 0.15. As to U70C A78G A116G U127C, the self-cleavage worked out at 0.29.

For the variant G74A C109U A135G, the self-cleavage came out at 0.08.

As to U72C A78G U127C, the self-cleavage worked out at 0.18. As for A86C U120C U127C, the figure is 0.18; as for A78U A94G C113U, 0.03; as for A78G U108C A117G, 0. As to U72C U100C U124A, the self-cleavage amounted to 0.46. As for A90G U103C U127C, the figure is 0.47. As to A78G U108C A117G U120C U124C, the self-cleavage turned out to be 0. The same measure for A78U C107A A117G U131C: 0; for U87A A92U A116G U132C: 1.28; for A78G A116G U122A: 0.12.

With U70C G80A A114U A116U A135U, the self-cleavage turned out to be 0. As for U70C U102A A117C, the figure is 0.02; as for A82G U87A A126C, 0.46; as for G73A A92G A135U, 0.14. The same measure for U70C U72A U102G U120A: 0.04. The same measure for U87G U108C U127C U130C: 0; for A78G A96G U103C U130C: 0.07. A78G U87A A89G U102C: the self-cleavage stood at 0.31. As for C71A C113U A129C, the figure is 0.01; as for G79A U102C U120C, 0.07.

U72C A94G C112A: the self-cleavage came to 0.03. U87C U103A A117G A135U: the self-cleavage is 0.81. For G75C A125G A134G, the self-cleavage was 0.01. As for C85U A90G U122C, the figure is 0.72. For A91G U102A U108C A114G, the self-cleavage was 0. The same measure for U70A A78U A86U U122C: 0.09; for U72C A78G U103C A110G A126C: 0.

In the case of A78G U127C U131C A135G, the self-cleavage was found to be 0.11. Turning to A86G A98G G106A, the self-cleavage was 0.01.

In the case of U70C A95G A140G, the self-cleavage is 1.02. The same measure for A86G U87A A91G U127C U130C: 0.07; for A86G A110U A118G: 0.79. As for G74A A86G U108C A118G, the figure is 0; as for U70C A89U A110G, 0.03; as for A91G A114C U132C, 0.02. The same measure for A91G C101U U131C: 0.12; for A86G A96G U130C: 1.08; for A90G A116G U130C: 0.08.

On to U72A U108C A117G, for which the self-cleavage stood at 0.01. The same measure for C71U U87C U133C: 0.41. The same measure for A89G A110U U122C A129G: 0.4; for A91G U100A U132C: 0.51.

On to A90G U124C A125G, for which the self-cleavage was determined as 1.24. As for A69U A91G A95G A110G, the figure is 0.33; as for G73A A96G U103A, 0.09; as for U87C G106A U122A G138U, 0. As to A82G U108C A111U, the self-cleavage amounted to 0.01. Consider A90G U100C A118G, for which the self-cleavage was determined as 0.63. A69U A94G A111G: the self-cleavage stood at 0.02.

As to A90G A91G U108A, the self-cleavage worked out at 0.03. As for A78U A86U G99A, the figure is 0.13. The same measure for U70G A82G U103C U120C: 1.47. The same measure for U72C U100C A110G: 0.07; for A91G A129U U139A: 0.64. Consider U72A A114G A117U, for which the self-cleavage came to 0.54. The same measure for U87C A92U U102G: 0.12. As to G74A A86G U97A A116G, the self-cleavage is 0.11. The same measure for A78G A125G U130C: 0.06; for A82G A117G U120C: 0.25; for G74C U100C U120C: 0.22. The same measure for A78G A98G U108C A110G: 0.02; for U70C A114G U122C A126U: 0.07. As to U87C A126U A134U, the self-cleavage was 0.42. As for U72A A118G U127A A140C, the figure is 0.03; as for U87C A96U G138U, 1.61. As for G73U G79A A86U A94G, the figure is 0.08; as for C77A C128A U133C, 0.84; as for U70C A78U A117G, 0.13. Consider U72C C76U A116U, for which the self-cleavage is 0.04. As for A78G A86G U132A, the figure is 0.16; as for C81A A96U U103C, 0.12; as for U72A A114G U127C, 0.04. The same measure for A78G A91G U130A: 0.06; for G83A A117G U133C: 1.79; for A82G A86U A110G: 0.12. As for A69U U72A A116G, the figure is 0.14; as for A78G A89G C109U, 0.08. As to A86G A95G U131C, the self-cleavage came out at 1.67.

As for U72C U108C U131C, the self-cleavage came to 0.

Turning to A82U U127C A129G, the self-cleavage amounted to 0.04.

For the variant A90G A118G U131C, the self-cleavage was 0.35.
